The campaign covered roughly 410,000 compounds. About 6,400 (1.6%) were called active. The shares of active, inactive and inconclusive entries below differ from those in the screen. The call rests on the fitted dose curve; in most records, active means well fitted inhibition curve with a large enough effect; inconclusive means small, poorly fitted or top-dose-only effect; inactive means no such curve, though single readings can be large or run the other way. Where the call is inconclusive, the potency comes from a doubtful curve fit.
Biological target: Glucagon-like peptide 1 receptor (Homo sapiens) (UniProt P43220)
Sequence of UniProt P43220 (P43220 whole entry, looked up): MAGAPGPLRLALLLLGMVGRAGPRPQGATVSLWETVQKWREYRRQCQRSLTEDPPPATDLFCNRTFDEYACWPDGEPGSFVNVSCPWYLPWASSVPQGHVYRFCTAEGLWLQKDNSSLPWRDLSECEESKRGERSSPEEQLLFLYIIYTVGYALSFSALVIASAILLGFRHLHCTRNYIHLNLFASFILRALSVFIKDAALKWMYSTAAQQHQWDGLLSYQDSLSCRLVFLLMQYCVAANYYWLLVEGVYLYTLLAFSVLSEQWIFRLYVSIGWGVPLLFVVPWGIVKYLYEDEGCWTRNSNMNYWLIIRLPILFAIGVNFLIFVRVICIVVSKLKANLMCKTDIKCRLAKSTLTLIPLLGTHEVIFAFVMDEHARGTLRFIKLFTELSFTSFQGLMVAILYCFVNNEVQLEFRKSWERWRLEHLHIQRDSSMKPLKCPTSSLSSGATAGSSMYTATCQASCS
Assay: qHTS of GLP-1 Receptor Inverse Agonists (Inhibition Mode); further: nearly all actives have a fitted effect of over 55% in size
Conditions: HEK293 GLP-1R CRE-luciferase, luminescence, 24 h, GLP-1R form is constitutively active; activity change, negative = inhibition: at 38.3 µM (top of the series) unless noted
Method in brief: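 Inverse agonists were sought by their lowering of basal cAMP reporter luciferase output in HEK293 cells stably carrying constitutively active human GLP-1R, after 24 h compound treatment.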
On the % scale 0 is the no-effect control and ±100 the full control effect; potency means the concentration at half of the fitted maximal effect; tags describe the fitted curve by direction and shape.

Potency, inconclusive:
CCc1ccc(-c2nc(C(N)=O)c3[nH]c(=O)n(-c4ccccc4OC)c3n2)cc1 1 µM [inhibitor, full curve, poor fit]
CCNC(=S)N(CCc1c(C)[nH]c2ccc(C)cc12)Cc1cccs1 28.2 µM [inhibitor, single point]
COCC(C)NS(=O)(=O)c1ccc(C(=O)NC(Cc2ccccc2)c2ccccc2)cc1 (centres undefined) 31.6 µM [inhibitor, single point]
CC1CCCCC1NC(=O)CN1CCN(S(=O)(=O)c2ccc(Br)s2)CC1 (centres undefined) 28.2 µM [inhibitor, single point]
Cc1ccccc1-c1nc(CS(=O)(=O)CC(=O)NCc2cccc(Cl)c2)c(C)o1 12.6 µM [inhibitor, partial curve, poor fit]
CC(C)OC(=O)c1c(NC(=O)C2CC=CCC2C(=O)O)sc2c1CCCCC2 (centres undefined) 17.8 µM [inhibitor, partial curve, poor fit]
CC(C)OCCCN1CC(=O)N2C(c3ccccc3)c3[nH]c4ccccc4c3C[C@H]2C1=O (some centres undefined) 11.2 µM [inhibitor, single point]
CCCCN1C(=O)C(=O)N(CC(=O)Nc2ccccc2C(=O)OCC)C1=O 28.2 µM [inhibitor, single point]
CC1(C)CC(NS(=O)(=O)c2ccc(Cl)cc2)CC(C)(C)N1 28.2 µM [inhibitor, single point]
CCC1=Nc2cc(C(=O)NC3CCCC3)ccc2Sc2ccc(Br)cc21 1.41 µM [inhibitor, full curve]
COc1cccc(N2CCN(C(=O)c3cc(C)oc3C)CC2)c1 10 µM [inhibitor, partial curve, poor fit]
Cc1noc(/C=C/c2ccco2)c1S(=O)(=O)N1CCC(C(=O)Nc2ccc(F)c(Cl)c2)CC1 10 µM [inhibitor, partial curve, poor fit]
CCn1c(=O)c(C(=O)NNS(=O)(=O)c2ccc(C)cc2)c(O)c2ccccc21 28.2 µM [inhibitor, single point]
CC1=Nc2ccccc2/C1=C/c1c(N)n2c(S(=O)(=O)CC(C)C)nsc2nc1=O 10 µM [inhibitor, partial curve]
Cc1ccc(-c2noc(CSc3nnc(CCc4ccccc4)n3-c3ccccc3)n2)cc1 11.2 µM [inhibitor, single point]
O=[N+]([O-])c1cc(CN2CCCC2)ccc1Sc1ccc(Cl)cc1 0.282 µM [inhibitor, full curve, poor fit]
COc1ccc(C(=O)Nc2ccc3oc(-c4cccc(Cl)c4)cc(=O)c3c2O)cc1 28.2 µM [inhibitor, single point]
COc1ccc(CCNC(=S)Nc2ccc(C)cc2C)cc1 28.2 µM [inhibitor, single point]
CCN(CC)S(=O)(=O)c1cccc(S(=O)(=O)N2CCCCC2)c1 11.2 µM [inhibitor, partial curve, poor fit]
O=C(Nc1cnc2ccccc2c1)c1ccco1 11.2 µM [inhibitor, partial curve]
O=S(=O)(c1ccc(Cl)s1)N1CCc2ccccc2C1 28.2 µM [inhibitor, single point]
Cc1ccc(NC(=O)CN(C)C(=O)COc2ccccc2-c2ccccc2)cc1 12.6 µM [inhibitor, partial curve, poor fit]
CC(C)(C)c1csc(NC(=O)C2COc3ccccc3O2)n1 (centres undefined) 10 µM [inhibitor, partial curve, poor fit]
CN(CC(O)COc1ccc(S(=O)(=O)N2CCOCC2)cc1Cl)C1CCCCC1 (centres undefined) 11.2 µM [inhibitor, single point]
COc1ccc(-c2nc3cc(C)c(Br)c(C)n3c2CC2CCCCC2)cc1OC 10 µM [inhibitor, partial curve, poor fit]
COc1ccccc1C(=O)NCCC(=O)Nc1ccc(OC(F)(F)F)cc1 28.2 µM [inhibitor, single point]
Oc1ccc(Br)cc1-c1n[nH]c(=S)n1Cc1ccccc1 3.98 µM [inhibitor, single point]
CN1C(=O)C(C)(C)c2cc(S(=O)(=O)N3CCCC(C(=O)Nc4ccc(Cl)cc4)C3)ccc21 (centres undefined) 15.8 µM [inhibitor, single point]
Cc1cccc(NC(=O)c2ccc(N3C(=O)C4C5C=CC(C6CC56)C4C3=O)cc2)c1 (centres undefined) 1 µM [inhibitor, full curve, poor fit]
CC(=O)Nc1ccc(S(=O)(=O)N2CC3(C)CC2CC(C)(C)C3)cc1 (centres undefined) 28.2 µM [inhibitor, single point]
O=C(CSC1=NNC(c2ccccn2)S1)Nc1ccccc1 (centres undefined) 10 µM [inhibitor, partial curve, poor fit]
CC(C)CC(=O)N1CCN(c2ccc([N+](=O)[O-])c(NCc3ccccc3)c2)CC1 12.6 µM [inhibitor, single point]
CC(=O)Nc1ccc(NC(=O)C(C)OC(=O)C2(c3ccc(F)cc3)CCCC2)cc1 (centres undefined) 7.94 µM [inhibitor, partial curve, poor fit]
CC1=CC(C)(C)Nc2ccc(OC(=O)c3ccco3)cc21 28.2 µM [inhibitor, single point]
CCOC(=O)C1(Cc2cccc(OC)c2)CCN(Cc2cccnc2)CC1 20 µM [inhibitor, partial curve, poor fit]
COc1ccccc1C(=O)NCCn1cc(SCc2ccccc2Cl)c2ccccc21 10 µM [inhibitor, partial curve, poor fit]
Cc1cccc(NC(=O)/C=C/c2ccc(Cl)cc2)n1 22.4 µM [inhibitor, single point]
CCn1ccnc1CN1CCCC(CO)(Cc2cccc(OC)c2)C1 (centres undefined) 6.31 µM [inhibitor, partial curve, poor fit]
CC1CCc2[nH]c3ccc(C(=O)N(C)CC(=O)Nc4ccccc4C(F)(F)F)cc3c2C1 (centres undefined) 10 µM [inhibitor, partial curve, poor fit]
CCOC(Cn1c(-c2ccc(OC)cc2)nc2ccccc21)OCC 10 µM [inhibitor, single point]
COc1ccc(-c2nc(-c3ccccc3)c(-c3ccc(O)cc3)[nH]2)cc1 11.2 µM [inhibitor, partial curve, poor fit]
COc1ccc(Cl)cc1NC(=O)CN(C)CC(=O)Nc1ccccc1N1CCOCC1 2.24 µM [inhibitor, full curve, poor fit]
O=C(c1ccccc1)C1C(c2ccccc2)C1[N+](=O)[O-] (centres undefined) 4.47 µM [inhibitor, partial curve]
CC(C)CNC(=O)c1cc(-c2ccc3c(c2)OCO3)on1 3.16 µM [inhibitor, partial curve, poor fit]
Cc1ccccc1CNC(=O)C1CCCN(S(=O)(=O)N(C)c2ccc(F)cc2)C1 (centres undefined) 2.51 µM [inhibitor, single point]
O=C(O)C1C2C=CC(C2)C1C(=O)Nc1ccc2c(c1)OCCO2 (centres undefined) 8.91 µM [inhibitor, partial curve, poor fit]
CCOc1ccc(NC(=O)Nc2ccc3nccnc3c2)cc1 28.2 µM [inhibitor, single point]
Cc1cc(C)cc(NC(=O)C2CCN(C(=O)[C@@H]3Cc4ccccc4CN3)CC2)c1 28.2 µM [inhibitor, single point]
Cc1ccc(-c2n[nH]c(Cc3ccccc3)n2)cc1 28.2 µM [inhibitor, single point]

Activity change, negative = inhibition, inactive:
Cc1cc(C)nc(CCNC(=O)c2cc(COc3c(F)cccc3F)on2)n1 2.38%
O=C(c1ccc([N+](=O)[O-])s1)N1CCN(c2ccc(C(F)(F)F)cn2)CC1 -7.81%
COc1ccc(-n2ncc3c(NCCC4=CCCCC4)ncnc32)cc1 3.72%
O=C(Nc1ncc(Cc2cc(Cl)ccc2Cl)s1)c1ccc([N+](=O)[O-])cc1 10.4%
Cc1ccc(CN2CCNC(=O)C2CC(=O)N(C)C2CCCCC2)cc1 (centres undefined) 2.46%
O=C(COC(=O)C12CC3CC(CC(O)(C3)C1)C2)NCCc1ccc(Cl)cc1 -17.2%
O=C1Nc2c(Cl)cccc2C1=O 11.7%
COc1ccc(CN2CCN(Cc3ccc(C)cc3)C(CCO)C2)cc1OC (centres undefined) 3.97%
Cc1ccc(-c2cc3nc(-c4ccccc4)cc(N)n3n2)cc1 4.15%
COc1ccc(Cn2c(C(=O)O)c(CNC3CCCCCC3)c3ccc(OC)cc32)cc1 -24.2%
CCCCn1c(N)c(N(CC(C)C)C(=O)CCCc2nc3ccccc3s2)c(=O)[nH]c1=O 0.546%
C=CCn1c2ccccc2c(=O)c2cc(C#Cc3cc(OC)cc(OC)c3)ccc21 17.6%
C=CCC1NS(=O)(=O)OC(COC)C1C (centres undefined) 9.6%
CCc1cccc(NC(=O)c2ccc(CN3C(=O)C(C)=C(c4ccc(OC)cc4)S3(=O)=O)cc2)c1 0.368%
CCOC(=O)c1c(C)[nH]sc1=S 10%

Reference: PubChem BioAssay AID624417 (National Center for Advancing Translational Sciences (NCATS), 2012)
